“And” between values parts separate entries of the source, which are not always exact repeats. Identical values can stand only once. Among all 150,000 compounds or so, about 540 (0.36%) showed an effect of 50% or more. This is one part of the list.
Test system: Plasmodium falciparum
Experiment: Primary screen in NF54 nanoGlo assay, in single point, at 2uM, 72h; a lower Z score goes with more inhibition
Format: functional, Erythrocyte
Details: timepoint 72 hour

| Structure (SMILES) | % Inhibition [%] | Z score | % Inhibition (2 µM) |
| --- | --- | --- | --- |
| COc1ccc([C@@H]2CCCN2C(=O)c2ccc3c(c2)C(=O)N(Cc2ccco2)C3=O)cc1 | -8 | 1.2 | – |
| CC1CC(NC2CCN(c3ccc(C#N)cc3)CC2)C1 (configuration not stated) | -10 | 1.32 | – |
| CC(=O)O/N=C(/c1nonc1N)N(C)C | 3 | -0.51 | – |
| c1cnc(-c2ccnc(NC3CC4CCC3C4)n2)cn1 (configuration not stated) | 6 | -1.11 | – |
| O=C(N[C@@H]1CN(Cc2ccc(F)cc2)CC[C@@H]1CO)c1ccccc1 | -11 | 1.4 | – |
| CN(C)c1ccc(CNC(=O)[C@H]2CCCN(c3nc4ccccc4[nH]3)C2)cc1 | 0 | 0.06 | – |
| COc1c(C#N)c(C#N)c(OC)c(OC)c1OC | -2 | 0.33 | – |
| CC(C)c1nnc(CN[C@H]2CC(C)(C)CCc3ccccc32)o1 | -5 | 0.62 | – |
| CCOCc1nc2c(c(NCCn3cc(Cl)cn3)n1)CCNCC2 | 13 | -1.7 | – |
| CCN1C(=O)CCc2cc(C(=O)N3CCC(C)CC3)ccc21 | -7 | 1.18 | – |
| COC[C@](C)(NCc1ccc2cn[nH]c2c1)C(F)(F)F | -7 | 1.35 | – |
| C[C@@H]1CN(CC(=O)NCCc2nnc(N)s2)C[C@H](C)O1 | -1 | 0.19 | – |
| Cc1cc(C)c(C(=O)NC(C2CCNCC2)[C@H]2C[C@H](O)C2)c(C)c1 (some centres not stated) | 6 | -0.74 | – |
| FC(F)(F)c1ccc2nnc([C@H]3CCCN(CN4CCOC4=S)C3)n2c1 | 7 | -0.99 | – |
| COc1cc2cc(c1)C(=O)NCCCC(=O)N[C@H]1CN(Cc3ccnc(C(C)C)n3)CC[C@@H]1OCc1cccc(c1)O2 | -14 | 2.67 | – |
| Cc1ccc(CNC(=O)Cn2c(=O)ccc3cc(S(=O)(=O)N4CCC(C)CC4)ccc32)o1 | -9 | 1.2 | – |
| CC1CCN(S(C)(=O)=O)C(C(C)O)C1 (configuration not stated) | -5 | 0.67 | – |
| Cc1csc(CNC(=O)c2ccc(C)o2)n1 | -8 | 1.03 | – |
| CCCc1ncn(Cc2nc(-c3ccccc3Cl)oc2C)n1 | -3 | 0.38 | – |
| COc1nc(C)c(-c2cccc(C(=O)NC(C)(CO)CO)c2)c(C)c1C#N | -10 | 1.08 | – |
| O=C(c1ccc2c(c1)OCO2)N1C2CCC1CC(S(=O)(=O)c1ccccc1)C2 (configuration not stated) | -7 | 0.88 | – |

| Structure (SMILES) | % Inhibition [%] | Z score | % Inhibition (2 µM) |
| --- | --- | --- | --- |
| O=S(=O)(Cc1ccccc1F)N1CCC[C@H]1c1noc(COCc2ccccc2)n1 | 1 | -0.08 | – |
| O=C(COc1ccccc1Cl)Nc1cc(S(=O)(=O)N2CCCC2)ccc1OCC(F)(F)F | 8 | -0.95 | – |
| O=C1CCc2cc(S(=O)(=O)N3CCCC3)cc3c2N1CCC3 | -12 | 1.54 | – |
| O=C1C[C@H]2CC[C@@H](CN1)N2c1cc(-c2ccccc2F)nc2ccnn12 | -8 | 0.96 | – |
| Cc1cc(S(=O)(=O)Nc2nccc(C)c2C2CC2)sc1C | -7 | 1.09 | – |
| COc1cc2c(cc1-c1nc3c([nH]1)c(C)nn3Cc1cccc(C)c1)OCO2 | 13 | -1.61 | – |
| COc1ccccc1-n1ncnc1[C@@H]1COCCO1 | 1 | -0.11 | – |
| Cc1ccc(Cc2nc3nc4c(c(Nc5ccc6c(c5)OCCO6)n3n2)CCCC4)cc1 | -12 | 1.1 | – |
| C[C@H](OC(=O)CNC(=O)COc1ccccc1)c1nc2ccccc2n1C(F)F | -4 | 0.39 | – |
| COc1ccc(C)cc1-n1ccnc1-c1cc2n(n1)CCCNC2 | -11 | 1.06 | – |
| CC[C@H](C)C(=O)Nc1ccccc1C(=O)NCc1nc(-c2cccnc2)no1 | 9 | -1.19 | – |
| O=C(COCc1cc(-c2ccco2)on1)NCCN1CCOCC1 | -2 | 0.2 | – |
| O=C(c1cncc(F)c1)N1CC(CN2C(=O)CCC2=O)C1 | -19 | 3.63 | – |
| C[C@H](O)CN1CCN(Cc2nc(C(=O)Nc3ccc(F)cc3)co2)CC1 | -9 | 1.6 | – |
| O=C1CN(Cc2ccc3cc[nH]c3n2)CCCN1 | 5 | -0.45 | – |
| O=C([C@H]1CCOC1)N1CCN(C(=O)N2CCN(Cc3ccccc3)CC2)CC1 | -1 | 0.15 | – |
| O=C1Cc2cc(S(=O)(=O)Nc3ccc4c(c3)OC(F)(F)O4)ccc2N1 | -1 | 0.14 | – |
| CC(C)c1noc(CCC(=O)NC[C@H](C)N2CCc3ccccc32)n1 | -11 | 1.54 | – |
| O=S(=O)(c1ccccc1)N1CCN(Cc2cncc(F)c2)CC1 | -5 | 0.88 | – |
| NC(=O)Cn1nnc(-c2ccc3c(c2)OCO3)n1 | -10 | 1.26 | – |
| CC(C)CN(C)CCCN1CC2(CCN(Cc3cccc(F)c3)CC2)OC1=O | -1 | 0.16 | – |

| Structure (SMILES) | % Inhibition [%] | Z score | % Inhibition (2 µM) |
| --- | --- | --- | --- |
| CN(C)C(=O)CNS(=O)(=O)c1c(Cl)cc(F)cc1Cl | -12 | 1.92 | – |
| COc1ccc(C(=O)N2CCC[C@@H]2C(N)=O)cc1OC1CCN(C(C)C)CC1 | 3 | -0.33 | – |
| CN1c2cc(C(=O)NCc3ccc(F)cc3)ccc2C(=O)N2CCC[C@@H]21 | -3 | 0.44 | – |
| Cc1cnc(CNc2nc(CC(C)C)ns2)nc1 | -15 | 1.89 | – |
| CCOc1ccccc1[C@@H]1CC(c2ccc(C)cc2)=NN1c1nc(-c2ccccc2)c2cc(Cl)ccc2n1 | -8 | 1.44 | – |
| CC(NC(=O)CC1CCCCC1C)c1nnc2c(=O)[nH]ccn12 (configuration not stated) | 22 | -2.76 | – |
| CCN(CC(F)(F)F)C(=O)Nc1ccc(OC)cc1F | -5 | 0.91 | – |
| Cc1ccccc1N1CCN(C(=O)c2n[nH]c3c2CN(C(=O)C2CCC2)CC3)CC1 | -12 | 1.17 | – |
| O=C(N[C@@H]1CN(Cc2ccc(F)cc2F)C[C@H]1CO)c1ccccc1 | -18 | 2.51 | – |
| CNC(=O)C(C)(C)CNCc1ccccc1-c1ccnn1C | 22 | -2.86 | – |
| O=C(Nc1cccc2cccnc12)N1CC[C@H](OCC2CC2)C1 | 2 | -0.4 | – |
| COc1ccccc1N1CCN(C(=O)C[C@]2(c3ccccc3OC)CC(=O)N(C)C2=O)CC1 | 10 | -1.23 | – |
| NC[C@H]1CCN(Cc2cccn2-c2ncccn2)C1 | 8 | -0.78 | – |
| N#Cc1ccccc1C(=O)N1CCC(Oc2ccccc2)(C(=O)O)CC1 | 0 | 0.03 | – |
| C[C@H]1CN(Cc2ccc(Cl)c(F)c2)CC[C@]1(O)C1CC1 | -7 | 0.97 | – |
| O=C(CC1CC2CCC1O2)Nc1ncccc1Cl (configuration not stated) | -3 | 0.64 | – |
| CCC1CC(CC(=O)Nc2ncc3cccnc3n2)CCO1 (configuration not stated) | 3 | -0.51 | – |
| Cn1c(CN2CCCC2)nnc1[C@H]1CCCN(c2nccc(N)n2)C1 | -3 | 0.57 | – |
| CN1CCN(c2cccc(N3CCC(N4CC(N5CCOCC5)C4)CC3)c2)C1=O | -6 | 1.26 | – |
| CC(C)COc1cccc(Cn2cc(CN3CCOC[C@H]3C)nn2)c1 | -2 | 0.4 | – |
| COc1cccc(Cn2cc(CN3CCOCC3)cc(C#N)c2=O)c1Cl | 24 | -3.11 | – |

| Structure (SMILES) | % Inhibition [%] | Z score | % Inhibition (2 µM) |
| --- | --- | --- | --- |
| CCOC(=O)C[C@H](N)c1cccc(Cl)c1Cl | 1 | -0.1 | – |
| COc1ccc(N2CCN(C3CCCCC3NS(=O)(=O)c3ccccc3)CC2)cc1 (configuration not stated) | -13 | 1.46 | – |
| CN(Cc1ccccc1)Cc1nnc2sc(-c3ccc4ccccc4n3)nn12 | -6 | 1.07 | – |
| NC(=O)C[C@H]1COCCN1C(=O)c1csc2c1CCCC2 | 1 | -0.13 | – |
| CC1=NN(Cc2ccccc2)C(=O)[C@H]1C(=O)Cn1nnc2ccccc21 | -3 | 0.44 | – |
| C[C@H]1CCCCN1C(=O)c1ccc(NC(=O)c2cn(C(C)(C)C)nn2)cc1 | -10 | 0.92 | – |
| OCCNc1nc([C@H]2CCOC2)cc(N2CCN(c3ccncc3)CC2)n1 | -5 | 0.71 | – |
| CCNC(=O)Nc1ccc(N(C)C)c(CN(C(=O)C(CC)CC)C2CCCCC2)c1 | -13 | 2 | – |
| O=C(Cn1ncc(-c2ccccc2)nc1=O)Nc1ccccc1C(F)(F)F | 8 | -1.05 | – |
| O=C(CCc1ccc(F)c(F)c1)N(Cc1ccccc1)CC1(O)CCCC1 | -1 | 0.11 | – |
| CN(C)c1nc(CNc2cc(Cl)ccc2N2CCC(CO)CC2)ns1 | -2 | 0.47 | – |
| CC(C)(C)[C@H](NS(C)(=O)=O)C(=O)N1Cc2ccccc2C2(CC2)C1 | -6 | 1.23 | – |
| CNC(=O)CNC(=O)c1cc(C)oc1C | -40 | 4.7 | – |
| CC(=O)N1CCO[C@H](C(=O)Nc2cc(N3CCCC3=O)ccc2F)C1 | -4 | 0.59 | – |
| CN(C)c1cc(C(=O)N2CCC3OCCCC3C2)ccn1 (configuration not stated) | -11 | 1.47 | – |
| Cc1cc(S(=O)(=O)[C@H]2CS(=O)(=O)C[C@@H]2N2CCc3ccccc3C2)ccc1F | -2 | 0.26 | – |
| Oc1ccc(OCc2ccccc2)cc1-c1c[nH]nc1-c1ccco1 | – | – | 13% and -4% |
| CCOc1ccc(NC(=O)N(CCCN(C)c2ccccc2)Cc2cccn2Cc2ccc(Cl)cc2)cc1 | -3 | 0.54 | – |
| CC1(C)CCN(C(=O)c2cc(Cc3ccccc3)n[nH]2)CC1 | -1 | 0.23 | – |
| Cc1ncsc1CN1CC[C@H](n2cc(COCc3ccccc3)nn2)C1 | -6 | 0.83 | – |
| CN1CCN(C(=O)C(c2ccccc2)c2ccccc2)[C@H]2CS(=O)(=O)C[C@H]21 | 5 | -0.51 | – |
